Source: the antibiotic and cytotoxicity screens of Wong et al. (2023)
The list shows a part of the results.

How the values were obtained:
[1] = test system: HSkMC (human skeletal muscle cells); assay: cytotoxicity call (relative viability < 0.9); details: 10 µM
[2] = test system: HepG2; assay: cytotoxicity call (relative viability < 0.9); details: 10 µM
[3] = test system: S. aureus RN4220; assay: growth inhibition call (relative growth <= 0.2); details: 50 µM

C[C@@H]1CCCCO[C@@H](CN(C)S(=O)(=O)c2cccs2)[C@H](C)CN([C@@H](C)CO)C(=O)c2cc(NC(=O)CCC(F)(F)F)ccc2O1
inactive: cytotoxicity call [1] | cytotoxicity call [2] | growth inhibition call [3]

NC(=O)c1cn(Cc2c(F)cccc2F)nn1
inactive: cytotoxicity call [1] | cytotoxicity call [2] | growth inhibition call [3]

C[C@H](CO)N1C[C@H](C)[C@H](CN(C)S(=O)(=O)c2cccs2)Oc2ccc(NC(=O)Cc3ccccc3)cc2CC1=O
inactive: cytotoxicity call [1] | cytotoxicity call [2] | growth inhibition call [3]

Cc1noc(C)c1NC(=O)Nc1ccc2c(c1)CC(=O)N([C@H](C)CO)C[C@H](C)[C@H](CN(C)Cc1ccc(C(F)(F)F)cc1)O2
inactive: cytotoxicity call [1] | cytotoxicity call [2] | growth inhibition call [3]

C[C@@H]1CN([C@@H](C)CO)C(=O)c2cc(NC(=O)c3ccccc3)ccc2O[C@@H](C)CCCCO[C@@H]1CN(C)S(=O)(=O)c1cccs1
inactive: cytotoxicity call [1] | cytotoxicity call [2] | growth inhibition call [3]

C[C@H]1CN([C@@H](C)CO)C(=O)c2ccccc2-c2ccccc2CO[C@H]1CN(C)Cc1ccc(-c2ccccc2)cc1
inactive: cytotoxicity call [1] | cytotoxicity call [2] | growth inhibition call [3]

COC(=O)c1ccc(O)c(O)c1
inactive: cytotoxicity call [1] | cytotoxicity call [2] | growth inhibition call [3]

CS(=O)(=O)Nc1ccc2c(c1)[C@@H]1C[C@H](CC(=O)NCC3CC3)O[C@H](CO)[C@@H]1O2
inactive: cytotoxicity call [1] | cytotoxicity call [2] | growth inhibition call [3]

CNC(=O)C[C@@H]1CC[C@H]2[C@@H](COC[C@@H](O)CN2C(=O)c2ccc3c(c2)OCO3)O1
inactive: cytotoxicity call [1] | cytotoxicity call [2] | growth inhibition call [3]
